The text below walks through data of publication PMC4336329 (PLoS ONE, 2015).

Each structure is given as a SMILES string. The whole screen tested about 310,000 compounds, of which about 2,200 (0.71%) showed an effect of 50% or more. The effect is printed as a negative number. This is one part of the list.

In the assay the target is human ether-à-go-go-related gene (hERG) potassium channel (human, UniProt Q12809). As to the kind of experiment: primary screen, population patch clamp on CHO cells stably expressing hERG.
human ether-à-go-go-related gene (hERG) potassium channel, sequence (Q12809 whole entry, looked up): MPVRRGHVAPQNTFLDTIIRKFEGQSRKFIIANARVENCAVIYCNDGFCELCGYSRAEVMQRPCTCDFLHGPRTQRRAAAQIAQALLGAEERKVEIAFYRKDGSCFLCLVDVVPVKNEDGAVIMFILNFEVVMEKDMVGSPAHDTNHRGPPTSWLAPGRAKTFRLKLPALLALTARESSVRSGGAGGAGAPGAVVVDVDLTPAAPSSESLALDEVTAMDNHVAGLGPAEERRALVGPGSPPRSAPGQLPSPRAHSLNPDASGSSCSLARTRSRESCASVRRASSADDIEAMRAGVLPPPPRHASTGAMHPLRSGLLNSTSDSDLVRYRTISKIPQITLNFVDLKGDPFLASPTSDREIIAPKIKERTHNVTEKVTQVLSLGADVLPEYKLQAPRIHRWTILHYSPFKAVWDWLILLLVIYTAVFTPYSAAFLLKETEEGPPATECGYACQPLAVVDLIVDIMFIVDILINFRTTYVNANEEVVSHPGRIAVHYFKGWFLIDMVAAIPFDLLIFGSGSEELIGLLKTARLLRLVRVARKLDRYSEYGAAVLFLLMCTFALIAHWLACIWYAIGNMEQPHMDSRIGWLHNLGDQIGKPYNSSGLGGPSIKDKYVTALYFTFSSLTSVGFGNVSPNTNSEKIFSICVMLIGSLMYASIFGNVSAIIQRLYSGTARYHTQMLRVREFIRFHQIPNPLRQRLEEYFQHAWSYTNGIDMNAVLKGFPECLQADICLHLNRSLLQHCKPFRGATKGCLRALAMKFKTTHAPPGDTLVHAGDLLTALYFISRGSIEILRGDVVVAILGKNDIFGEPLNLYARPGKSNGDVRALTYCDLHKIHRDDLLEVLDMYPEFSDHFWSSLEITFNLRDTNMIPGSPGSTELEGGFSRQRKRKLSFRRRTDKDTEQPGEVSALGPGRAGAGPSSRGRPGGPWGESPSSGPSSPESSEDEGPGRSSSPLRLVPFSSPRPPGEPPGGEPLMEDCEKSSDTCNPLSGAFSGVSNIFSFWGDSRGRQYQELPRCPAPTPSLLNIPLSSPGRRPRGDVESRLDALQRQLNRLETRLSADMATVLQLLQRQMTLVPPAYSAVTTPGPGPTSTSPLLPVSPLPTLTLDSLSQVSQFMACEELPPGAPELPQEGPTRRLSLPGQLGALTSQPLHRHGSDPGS
As to `CC(=O)N1CCN(CC(O)COc2ccc(Br)cc2)CC1.O=C(O)C(=O)O` (centres unmarked), the “hERG current change (%, negative = inhibition) at 1uM” value is listed as 4.55%.
Under `Cc1ccc(NC(=O)c2cc(S(=O)(=O)N3CCOCC3)c(Br)s2)cc1` stands 13.2%; under `CCn1c(SCC(=O)Nc2ccc(C)cc2)nc(O)cc1=O`, 7.96%; under `N#Cc1c(N2CCNCC2)nc(-c2ccco2)c2c1CCCC2`, 13.6%.
Take `CS(=O)(=O)N1N=C(c2cccs2)CC1c1ccc(Cl)o1` (centres unmarked): the “hERG current change (%, negative = inhibition) at 1uM” value is given as 6.92%.
In the case of `NNC(=O)CCS(=O)(=O)c1ccc2ccccc2c1` it was 17%; in that of `CC1CCCC(C)N1C(=O)c1ccc(S(=O)(=O)N2CCCC2)cc1` (centres unmarked), 6.18%.
In the case of `O=C(CSc1nnc(-c2c[nH]c3ccccc23)n1-c1ccc(F)cc1)NCc1ccco1` it was -0.439%; in that of `Cn1c(=O)c2c(nc(CN3CCCCC3)n2CCCc2ccccc2)n(C)c1=O`, 0.681%.
Under `COCc1cc(CN2CCCC(C(=O)c3cccc(C(F)(F)F)c3)C2)ccc1OC` (centres unmarked) stands -1.37%; under `Cc1ccccc1C(=O)NC1CCN(CC(=O)N2CCCCC2C)CC1` (centres unmarked), 10.5%.
Regarding `CCO[C@@H]1OC(C(=O)N2CCN(C)CC2)=C[C@H](c2csc3ccccc23)[C@H]1CCCO`, the “hERG current change (%, negative = inhibition) at 1uM” value is recorded as 0.669%.
Under `CC(=O)CSc1nc2ccccc2o1` stands 13.9%; under `COc1cc2cc(C(c3nnnn3C(C)(C)C)N3CCc4ccccc43)c(=O)[nH]c2cc1OC` (centres unmarked), 0.194%; under `COc1ccc(C(CC(=O)c2ccccc2)S(=O)(=O)c2ccc(C)cc2)cc1` (centres unmarked), 13.9%.
Under `CC(C)NCCOCCSc1ccc(Cl)cc1.O=C(O)C(=O)O` stands -15.9%; under `COCCN1C=C2C(=O)C(C)(OC(=O)C3CCCC3)C(=O)C(c3ccccc3)=C2C=C1CCCC(=O)OC` (centres unmarked), 4.56%.
Under `O=C(c1ccccc1)C1CN(c2ccccc2)CC1c1ccc(Cl)cc1` (centres unmarked) stands 21.4%.
`CCCCn1c(N)c(N(CC(C)C)C(=O)c2cc(=O)[nH]c3ccccc23)c(=O)[nH]c1=O`: the “hERG current change (%, negative = inhibition) at 1uM” value is listed as 4.05%.
In the case of `CCCN(CCC)Cc1c(C(=O)N/N=C/c2ccc(C)o2)nnn1-c1nonc1N` it was 9.95%; in that of `COc1ccc(OC)c(C(c2nnnn2C2CCCC2)N2CCc3ccccc3C2)c1` (centres unmarked), -6.55%; in that of `CC(C)CC(=O)NCC(C)NC(=O)CC(C)C` (centres unmarked), 0.917%.
Take `O=C(NC1CCCc2ccccc21)C1CCC(CNS(=O)(=O)c2cccc3nsnc23)CC1` (centres unmarked): the “hERG current change (%, negative = inhibition) at 1uM” value amounted to 0.23%.
For the compound `CC(C)(C)c1cc(CCC(=O)NCC2CCCO2)cc(C(C)(C)C)c1O` (centres unmarked), the “hERG current change (%, negative = inhibition) at 1uM” value is 12.9%.
Under `CCOC(=O)Nc1nc(C)c(C(=O)c2ccc(Cl)cc2)s1` stands 21.6%.
In the case of `O=c1[nH]c2ccc(NC(=S)NCCc3ccccc3)cc2[nH]1` it was 6.17%.
In the case of `N#Cc1ccccc1S(=O)(=O)Nc1ccc2c(c1)OCCO2` it was 14.1%; in that of `O=C1C2CCCN2C(c2ccccc2F)N1c1ccc(Cl)cc1` (centres unmarked), 8.03%; in that of `O=c1ccc(S(=O)(=O)N2CCC(Cc3ccccc3)CC2)c[nH]1`, 6.01%.
With `N#Cc1ccccc1-n1c(N)c(C(=O)N2CCCC2)sc1=S`, the “hERG current change (%, negative = inhibition) at 1uM” value was -1.76%.
In the case of `O=C(N/N=C/c1ccc([N+](=O)[O-])o1)C(O)c1ccccc1` (centres unmarked) it was 2.98%; in that of `Cc1cc(OC(=O)c2cccc([N+](=O)[O-])c2)c(C)cc1CN1CCOCC1`, 14.4%.
In the case of `CC(=O)c1c(C)nc(-c2ccc3c(c2)OCO3)n1O` it was 9.89%.
Consider `CC(C)CC(=O)O/N=C1\C(=O)N(c2ccccc2)c2ccccc21`, for which the “hERG current change (%, negative = inhibition) at 1uM” value came out at 15.3%.
As to `Cc1ccc(C)c(S(=O)(=O)N2CCC3(CC2)OCCN3S(=O)(=O)c2cccs2)c1`, the “hERG current change (%, negative = inhibition) at 1uM” value is listed as 6.67%.
On to `CCCCCN(C(=O)CCC(=O)OCCOc1ccc(OC)cc1)c1c(N)n(CCCC)c(=O)[nH]c1=O`, for which the “hERG current change (%, negative = inhibition) at 1uM” value stood at 5.05%.
In the case of `CCOC(=O)c1ccccc1NC(=O)CSc1nnc(C(C)C)n1CC` it was 8.81%.
Under `O=C(CN1C(=O)C(=O)c2ccccc21)OCN1C(=O)c2ccccc2C1=O` stands 19.6%; under `CC(=O)Nc1ccc(S(=O)(=O)Nc2nc3ccccc3nc2Nc2ccc(O)cc2)cc1`, 13.4%.
Under `Cc1ccsc1C(=O)C1CCCN(Cc2cc(F)ccc2-n2cccn2)C1` (centres unmarked) stands -45.5%; under `CC1(C)C(N(O)C(=O)Nc2ccc(Cl)cc2)N(c2ccc(Cl)cc2)C(=O)N1CC(=O)NN` (centres unmarked), -5.8%; under `COC(=O)c1nn(-c2ccc(OC)cc2)c(=O)cc1Oc1cccc(Cl)c1`, -0.405%.
As to `COc1ccc(OC)c(N(CC(=O)NCCSCc2ccc(C)cc2)S(C)(=O)=O)c1`, the “hERG current change (%, negative = inhibition) at 1uM” value was 7.2%.
Under `CC(=O)Nc1ccc(S(=O)(=O)NC2(C(F)(F)F)C(=O)Nc3c2c(=O)n(C)c(=O)n3C)cc1` (centres unmarked) stands 6.29%.
